# Test results reported in article PMC4336329 (PLoS ONE, 2015).
# The whole screen tested about 310,000 compounds, of which about 14,000 (4.5%) showed an effect of 50% or more. The effect is printed as a negative number. This is one part of the list.
# Target: human ether-à-go-go-related gene (hERG) potassium channel (human, UniProt Q12809)
# Test: primary screen, population patch clamp on CHO cells stably expressing hERG
# 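Note: peak tail current of the secondary pulse compared with the same well before compound.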
# human ether-à-go-go-related gene (hERG) potassium channel, sequence (Q12809 whole entry, looked up): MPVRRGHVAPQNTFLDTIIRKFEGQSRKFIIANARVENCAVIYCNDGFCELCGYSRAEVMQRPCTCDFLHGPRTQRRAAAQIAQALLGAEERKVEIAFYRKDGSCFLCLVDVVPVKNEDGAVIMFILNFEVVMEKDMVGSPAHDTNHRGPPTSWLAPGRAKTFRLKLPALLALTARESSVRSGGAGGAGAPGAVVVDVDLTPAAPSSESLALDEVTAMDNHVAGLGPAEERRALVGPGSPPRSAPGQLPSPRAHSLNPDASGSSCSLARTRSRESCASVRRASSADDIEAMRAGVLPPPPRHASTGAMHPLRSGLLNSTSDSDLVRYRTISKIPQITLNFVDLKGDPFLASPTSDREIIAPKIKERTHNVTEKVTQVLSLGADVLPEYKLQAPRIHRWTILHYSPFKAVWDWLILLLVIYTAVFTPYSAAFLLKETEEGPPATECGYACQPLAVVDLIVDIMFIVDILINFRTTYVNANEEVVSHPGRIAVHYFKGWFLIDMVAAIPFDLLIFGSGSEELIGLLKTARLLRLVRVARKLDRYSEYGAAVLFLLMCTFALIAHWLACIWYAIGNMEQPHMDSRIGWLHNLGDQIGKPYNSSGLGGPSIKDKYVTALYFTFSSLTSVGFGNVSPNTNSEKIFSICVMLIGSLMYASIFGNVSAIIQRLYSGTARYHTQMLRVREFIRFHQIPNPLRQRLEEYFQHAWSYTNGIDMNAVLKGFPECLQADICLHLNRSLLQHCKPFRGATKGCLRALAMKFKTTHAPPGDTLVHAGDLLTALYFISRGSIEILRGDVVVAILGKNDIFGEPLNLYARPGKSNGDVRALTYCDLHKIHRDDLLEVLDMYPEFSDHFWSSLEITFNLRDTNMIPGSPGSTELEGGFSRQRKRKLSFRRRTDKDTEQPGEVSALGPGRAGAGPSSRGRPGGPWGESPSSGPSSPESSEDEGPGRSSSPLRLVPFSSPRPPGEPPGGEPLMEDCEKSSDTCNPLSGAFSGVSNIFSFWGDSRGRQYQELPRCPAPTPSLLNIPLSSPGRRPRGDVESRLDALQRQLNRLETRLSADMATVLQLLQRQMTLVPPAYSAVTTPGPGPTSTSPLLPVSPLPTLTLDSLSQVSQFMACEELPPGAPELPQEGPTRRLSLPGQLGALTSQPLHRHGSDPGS
row,SMILES,"hERG current change (%, negative = inhibition) at 10uM [%]"
1,COc1ccc(NC(=O)CSc2nc3ccccc3c(=O)n2CCNC(C)=O)cc1,-73.6
2,COc1ccc(F)cc1C(=O)C1CCCN(Cc2cn(C)c3ccccc23)C1 (stereo not shown),-39.5
3,COc1ccccc1-c1cc(C(=O)Nc2ccccc2SC)no1,-5.04
4,COCCN(C(=O)CNC(=O)c1ccco1)C(C(=O)NC1CCCC1)c1ccccc1F (stereo not shown),-32.3
5,COc1ccc(OC)c(NC(=O)C23CCC(C)(C(=O)C2)C3(C)C)c1 (stereo not shown),14.2
6,NC(CS(=O)O)C(=O)O (stereo not shown),3.84
7,COC(=O)C1(C)NC(c2ccc(O)cc2)C2C(=O)N(c3ccc(C)cc3)C(=O)C21 (stereo not shown),15.7
8,Cc1[nH]n(CCC#N)c(=O)c1CC(=O)N1CCN(c2ccccc2)CC1,2.62
9,CC(Oc1ccccc1)C(=O)NNS(=O)(=O)c1ccc([N+](=O)[O-])cc1 (stereo not shown),13.4
10,C/C(Cl)=C\Cn1c(N2CCCC2)nc2c1c(=O)n(C)c(=O)n2C,10.9
11,CC1CCC(N2CCN(C(=O)c3ccccc3F)CC2)CC1.O=C(O)C(=O)O (stereo not shown),-2.63
12,c1ccc(-c2nc(N3CCOCC3)cc(N3CCOCC3)n2)cc1,4.47
13,C=CCn1c(=O)c2ccc(C(=O)NCc3ccccc3)cc2n(Cc2ccccc2Cl)c1=O,4.79
14,O=C(Cn1cnnn1)OCC(=O)c1ccc(Cl)s1,1.61
15,CN(CC(=O)O/N=C(\N)c1ccccn1)S(=O)(=O)c1ccc(Br)cc1,-11.2
16,COC(=O)c1ccc2c(C(C)(C)O)c(C(C)(C)O)[nH]c2c1,14.3
17,CCOC(=O)Cc1csc(NC(=S)NC(=O)c2ccccc2C)n1,2.37
18,CC(C)N(C(=S)Nc1cccc(C(F)(F)F)c1)C(C)c1ccccn1 (stereo not shown),-11.5
19,Cc1ccc(C)c(N2CCN(C(=O)c3cc4ccccn4n3)CC2)c1,-39.5
20,COC(C[C@@H]1O[C@H]1C(=O)COCc1ccccc1)OC,12.1
21,S=C(Nc1ccc(Cl)cc1Cl)N1CCCC1,12.3
22,Cc1ccc(C)c(N2CCN(Cc3nnnn3C3CCCCC3)CC2)c1.Cl,-4.45
23,Nn1c(SCc2ccc(C(=O)O)cc2)nnc1-c1ccc(Cl)cc1Cl,18.9
24,CC(C)N(C(=O)c1nn(C)c2c1CSc1ccccc1-2)C1CCCCC1,10.9
25,CCC(C)[C@H](NC(=O)[C@@H]1Cc2c([nH]c3ccccc23)C2c3ccccc3C(=O)N21)C(=O)NCC1CCCO1 (stereo partly shown),-13.4
